The supplement of paper PMC10670038
Structures can show the parent of a compound that is named as a salt. ± gives the standard deviation of the averaged measurements. Over roughly 2,000 compounds, “relative cell viability vs DMSO, compound + 0.2 uM CuET” has its median near 1; the lowest 2% begin near 0.25. Some of the results follow.

What follows are compounds tested on TE10 (assay: relative cell viability vs DMSO, compound + 0.2 uM CuET (fraction); TE10 is an esophageal squamous carcinoma line; higher = less cytotoxic). Conditions: 2 µM; co-treatment: CuET (bis(diethyldithiocarbamate)copper) 0.2 uM; 48 h.
Method: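 TE10 ESCC cells (1,000/well, 384-well plates) were treated with Selleck bioactive library compounds at 2 uM combined with 0.2 uM CuET (copper diethyldithiocarbamate) for 48 h. Viability was read by CellTiter-Glo and expressed relative to DMSO wells. Two technical replicates (A, B).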

| Compound | relative cell viability |
| --- | --- |
| O=S(=O)(CC1CS1)c1ccc(Oc2ccccc2)cc1 (stereo not drawn) | 0.936 ± 0.07 |
| O=c1[nH]c2ccccc2n1CCCN1CCC(n2c(=O)[nH]c3cc(Cl)ccc32)CC1 [Domperidone] | 1.03 ± 0.12 |
| c1cc2c(cc1[C@H]1OC[C@H]3[C@@H]1CO[C@@H]3c1ccc3c(c1)OCO3)OCO2 [Sesamin] | 1.09 ± 0.084 |
| Cc1cc(O)ccc1Cl [Chlorocresol] | 1.152 ± 0.0014 |
| Fc1cc(F)c2c(c1)[C@H]1C=CC[C@H]1C(c1cccnc1)N2 (stereo partly drawn) [Golgicide A] | 0.95 ± 0.2 |
| CN1[C@@H]2CC[C@H]1C[C@@H](OC(=O)[C@H](CO)c1ccccc1)C2 [Hyoscyamine] | 1.2 ± 0.12 |
| Nc1nc(N)nc(NC2CC2)n1 [Cyromazine] | 1.11 ± 0.036 |
| NCCc1ccc(S(=O)(=O)F)cc1 | 1.16 ± 0.088 |
| CCC(COC(=O)c1cc(OC)c(OC)c(OC)c1)(c1ccccc1)N(C)C (stereo not drawn) [Trimebutine] | 0.988 ± 0.092 |
| C/C=C(\C)C(=O)N[C@@H](c1ccccc1)[C@@H](O)C(=O)O[C@H]1C[C@@]2(O)[C@@H](OC(=O)c3ccccc3)[C@@H]3[C@]4(OC(C)=O)CO[C@@H]4C[C@H](O)[C@@]3(C)C(=O)[C@H](OC(C)=O)C(=C1C)C2(C)C [Cephalomannine] | 0.681 ± 0.016 |
| NCCc1c[nH]c2ccc(O)cc12 [Serotonin HCl] | 1.11 ± 0.063 |
| COc1ccc2c(c1)/C(=C/c1cnc[nH]1)C(=O)N2 | 1.12 ± 0.25 |
| COc1ccc(C[C@H]2NC[C@H](O)[C@H]2OC(C)=O)cc1 [Anisomycin] | 0.498 ± 0.052 |
| C[C@@H]1CC[C@H]2[C@@H](C)C(=O)O[C@@H]3O[C@@]4(C)CC[C@@H]1[C@]32OO4 [Artemisinin] | 1.08 ± 0.11 |
| CCC1(c2cccc(O)c2)CCCCN(C)C1 (stereo not drawn) [Meptazinol HCl] | 0.869 ± 0.24 |
| Cc1c(Cl)c(OCC(=O)N2CCN(C)CC2)nc2sc(C(=O)NC3CC3)c(N)c12 | 1.07 ± 0.013 |
| Cc1cccc([C@H](C)c2c[nH]cn2)c1C [Dexmedetomidine] | 1.13 ± 0.0081 |
| Cc1cccc([C@H](C)c2c[nH]cn2)c1C [Dexmedetomidine HCl (Precedex)] | 1 ± 0.16 |
| C#C[C@]1(O)C=C[C@H]2[C@@H]3CCC4=CC(=O)CC[C@@H]4[C@H]3CC[C@@]21CC [Gestodene] | 0.906 ± 0.19 |
| NCC(=O)O.[C-]#[O+].[C-]#[O+].[C-]#[O+].[Cl][Ru] | 1.12 ± 0.15 |
| Cc1cc(C(=O)CN2CCCC2)c(C)n1-c1ccc(F)cc1 | 0.959 ± 0.085 |
| C[C@@]12N[C@@H](Cc3ccccc31)c1ccccc12 [(-)-MK 801 Maleate] | 1.22 ± 0.21 |
| CC(=O)OC12COC1CC(O)C1(C)C(=O)C(O)C3=C(C)C(O)CC(O)(C(OC(=O)c4ccccc4)C21)C3(C)C (stereo not drawn) [10-Deacetylbaccatin-III] | 0.849 ± 0.011 |
| O=S(=O)(F)Cc1ccccc1 | 0.716 ± 0.51 |

| Compound | relative cell viability |
| --- | --- |
| NC(=O)CN1CCCC1=O [Piracetam] | 1.23 ± 0.088 |
| O=P1(NCCCl)OCCCN1CCCl (stereo not drawn) [Ifosfamide] | 1.22 ± 0.034 |
| O=C1CCC[C@@H]2[C@H]3CCCN4CCC[C@@H](CN12)[C@@H]34 [(+)-Matrine] | 1.07 ± 0.035 |
| Cc1cccc(C)c1NC1=NCCCS1 [Xylazine HCl] | 1.14 ± 0.024 |
| O=C(Oc1ccc([N+](=O)[O-])cc1)N1CCC(C(O)(c2ccc3c(c2)OCO3)c2ccc3c(c2)OCO3)CC1 | 0.827 ± 0.12 |
| Cc1cc(SCc2sc(-c3ccc(C(F)(F)F)c(F)c3)nc2C)ccc1OCC(=O)O | 1.14 ± 0.071 |
| CC(C)(C)[C@]1(O)CC2OC(=O)CC23C(=O)OC2OC(=O)[C@H](O)C231 (stereo partly drawn) [Bilobalide] | 1.14 ± 0.047 |
| O=C(O[C@H]1C[N+]2(CCCOc3ccccc3)CCC1CC2)C(O)(c1cccs1)c1cccs1 [Aclidinium Bromide] | 1.08 ± 0.13 |
| C[C@@H]1O[C@@H](O[C@H]2C[C@@H](O)[C@]3(CO)[C@H]4[C@H](O)C[C@]5(C)[C@@H](C6=CC(=O)OC6)CC[C@]5(O)[C@@H]4CC[C@]3(O)C2)[C@H](O)[C@H](O)[C@H]1O [Ouabain] | 0.813 ± 0.021 |
| NCC(O)c1ccc(O)cc1 (racemic) [(+,-)-Octopamine HCl] | 0.697 ± 0.56 |
| C[C@]12CC[C@H](O)C[C@@H]1CC[C@@H]1[C@@H]2CC[C@]2(C)C(=O)CC[C@@H]12 [Epiandrosterone] | 1.22 ± 0.18 |
| C[N+]1(C)[C@@H]2C[C@@H](OC(=O)[C@H](CO)c3ccccc3)C[C@H]1[C@@H]1O[C@@H]12 [Methscopolamine] | 0.995 ± 0.097 |
| CN(C)C(=O)Oc1cc(OC(=O)N(C)C)cc(C(O)CNC(C)(C)C)c1 (stereo not drawn) [Bambuterol HCl] | 1.08 ± 0.077 |
| CCN(C)C(=O)Oc1cccc([C@H](C)N(C)C)c1 [Rivastigmine Tartrate] | 1.12 ± 0.097 |
| CCC1(c2ccc(N)cc2)CCC(=O)NC1=O (stereo not drawn) [Aminoglutethimide] | 1.06 ± 0.13 |
| C[C@]12N[C@H](Cc3ccccc31)c1ccccc12 [MK-801 (Dizocilpine)] | 1.29 ± 0.44 |
| C[C@](O)(COc1ccc(C#N)cc1)C(=O)Nc1ccc(C#N)c(C(F)(F)F)c1 | 1.13 ± 0.095 |
| CC(=O)Nc1ccc(OC[C@](C)(O)C(=O)Nc2ccc([N+](=O)[O-])c(C(F)(F)F)c2)cc1 [Andarine] | 1.26 ± 0.14 |
| COC(=O)C1=CCCN(C)C1 [Arecoline] | 1.02 ± 0.13 |
| CNCC(=O)c1ccc(O)c(O)c1 [Adrenalone HCl] | 0.976 ± 0.018 |
| CN1C2CC(O)CC1C1OC12 (stereo not drawn) [Scopine] | 0.887 ± 0.11 |
| CC(C)N(CCNC(=O)CN1CCCC1=O)C(C)C [Pramiracetam] | 1.03 ± 0.092 |
| Cc1c(N)nc(C(CC(N)=O)NCC(N)C(N)=O)nc1C(=O)NC(C(=O)NC(C)C(O)C(C)C(=O)NC(C(=O)NCCc1nc(-c2nc(C(=O)NCCC[S+](C)C)cs2)cs1)C(C)O)C(O[C@@H]1O[C@@H](CO)[C@@H](O)[C@H](O)[C@@H]1O[C@H]1O[C@H](CO)[C@@H](O)[C@H](OC(N)=O)[C@@H]1O)c1cnc[nH]1 (stereo partly drawn) [Bleomycin Sulfate] | 1.07 ± 0.12 |
| C[C@]12CC[C@H]3[C@@H](CC[C@@]45O[C@@H]4C(O)=C(C#N)C[C@]35C)[C@@H]1CC[C@@H]2O [Trilostane] | 1.17 ± 0.29 |
